Reference: patent publication US20200277373A1, “ANTI-TREM2 ANTIBODIES AND METHODS OF USE THEREOF” (Denali Therapeutics Inc., priority 2017, published 2020)
Positions count from the first letter of the chain named. Entries after “also recorded” stand apart in the source; their conditions may differ.

Key:
hTREM2 = molecular target: T1, hTREM2 (Homo sapiens, UniProt Q9NZC2); test: Octet binning (competition with R&D antibody on biotinylated TREM2-His); format: binding; details: epitope bin, 100 nM
T1 construct: The ecto domain (residues 19-172) of TREM2 (UniProtKB—Q9NZC2); secretion signal of mouse Ig kappa chain V-III (P01661 aa 1-20) (N); made in house; host or cells: Expi293F
T1 sequence (Q9NZC2 19-172): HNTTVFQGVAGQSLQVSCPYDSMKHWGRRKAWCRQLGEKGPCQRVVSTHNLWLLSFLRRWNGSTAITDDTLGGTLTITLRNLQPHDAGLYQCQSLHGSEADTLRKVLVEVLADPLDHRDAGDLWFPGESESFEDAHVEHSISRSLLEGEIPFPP
Method: Competition with R&D antibody was done by Octet Red using biotinylated human Trem2-His protein generated in house. Biotinylated human TREM2-His protein was captured on a streptavidin tip, and the tip was then incubated in either 100 nM of R&D Ab or buffer for 3 minutes, followed by incubation for 3 minutes in 100 nM of testing hybridoma. The difference of hybridoma binding curve with or without pre-binding to R&D antibody was analyzed to determine the epitope.

TREM2 [1] = molecular target: T2, TREM2 (Homo sapiens, UniProt Q9NZC2); test: pSyk antagonist assay on HEK293 TREM2/DAP12 cells; format: cell-based; details: FIGS. 9E-9G
T2 construct: expressed in transfected cells
Method: These experiments were performed as follows. Two days in advance of the experiment, HEK293 cells stably overexpressing TREM2 and DAP12 were plated at 40,000 cells/well on a 96 well poly-D-lysine-coated plate. Antibodies diluted in DMEM alone were immediately added to the cells, and allowed to incubate for 30 minutes at 37° C. The antibodies were then removed. […] The liposome/antibody solution was removed, and 35 μL lysis buffer (Cell Signaling Technologies, CST) was added using the liquid handler. The lysate was then incubated at 4° C. for 30 minutes, then either frozen at −80° C. or immediately carried forward to a pSyk AlphaLISA assay as described above. The percent inhibition was calculated as in FIG. 9C.
FIGS. 9F and 9G show inhibition by 21D4 and 21D11, respectively, at increasing antibody concentrations. These experiments were performed similarly to those described in FIG. 9E.

TREM2 [2] = molecular target: T2, TREM2; test: PAM and single point pSyk screen, HEK293 TREM2/DAP12 cells, antibody with or without PS/PC liposomes; format: cell-based; details: for p-Syk induction by antibody alone (in words): no liposomes, HEK293 TREM2/DAP12
Method: Two days in advance of the experiment, HEK293 cells stably overexpressing TREM2 and DAP12 were plated at 40,000 cells/well on a 96 well poly-D-lysine-coated plate. In PAM experiments utilizing lipid vesicles, the lipid vesicles (see protocol below) were then mixed with the antibodies (at a constant concentration) on a 96-well plate using a Hamilton Nimbus liquid handler at a liposome concentration of 0, liposome EC20, EC50, or EC80 (see below) in PBS. In agonist experiments alone (no liposomes), antibodies were diluted without liposomes in PBS. The cells were washed 3× with HBSS with a Biotek 405/406 plate washer, then 50 μL of the liposome/antibody mixture was added per well using a Hamilton Nimbus liquid handler. The cell plate containing the liposome/antibodies was then transferred to a 37° C. incubator for 5 minutes. The liposome/antibody solution was removed by flicking the plate, and 40 μL lysis buffer (Cell Signaling Technologies, CST) was added using the liquid handler. The lysate was incubated at 4° C. for 30 minutes, then either frozen at −80° C. or immediately carried forward to the alpha-LISA assay as described above.
Two days in advance of the experiment, HEK293 cells stably overexpressing TREM2 and DAP12 were plated at 40,000 cells/well on a 96 well poly-D-lysine-coated plate. The lipid vesicles (see protocol below) were then mixed with the antibodies on a 96-well plate using a Hamilton Nimbus liquid handler at a concentration of 0, EC20, EC50, or EC80 (see below). The cells were washed 3× with HBSS with a Biotek 405/406 plate washer, then 50 μL of the liposome/antibody mixture was added per well using a Hamilton Nimbus liquid handler. […]
The liposomes were diluted in HBSS, and 50 μL of liposome solution was added per well to TREM2/DAP12-overexpressing cells using the Hamilton Nimbus liquid handler as in the above protocol. […] The pSyk response was measured as described above from 10 μL lysate, and the curve fit using a non-linear regression (4 parameter dose response) fit in Prism.

TREM2 [3] = molecular target: T2, TREM2; test: FACS binning on human TREM2-HEK cells (competition with R&D antibody); format: binding; details: epitope bin, 100 nM antibody
Method: HEK293 overexpressing human TREM2 (H6) were harvested by 0.05% trypsin and incubated at 37° C. incubator for 2 hours for surface TREM2 recovery. After incubation, cells were washed with 1×PBS and FACS buffer (PBS+0.5% BSA) with human Trustain FcX solution (Biolegend, Cat #422302) was added at a density of 10^6/mL. Cells were seeded at 100,000 cells per well in a 96-well round-bottom and incubated 20 minutes at room temperature. After incubation, anti-TREM2 antibodies (100 nM) were added to the cells and the cells were incubated for 45 minutes on ice. After incubation, rat anti-h/mTREM2-APC antibody (1:100, R&D, Cat # FAB17291A) was added to the cells, and the cells were incubated for 30 minutes on ice. After incubation, cells were washed with FACS buffer three times and resuspended in 10 μL FACS buffer, then analyzed by flow cytometry (BD FACSCanto II, San Jose, Calif.). 20,000 events were obtained for each sample. The ability to compete with R&D antibody was determined by MFI analysis compared to isotype or buffer control wells.

TREM2 [4] = molecular target: T3, TREM2 (Homo sapiens, UniProt Q9NZC2); test: TREM2 PAM/pSyk assay on human macrophages; format: cell-based
T3 construct: macrophage cells that endogenously express TREM2; endogenous in cells; host or cells: primary human monocyte-derived macrophages from donor blood
T3 sequence (Q9NZC2 19-230): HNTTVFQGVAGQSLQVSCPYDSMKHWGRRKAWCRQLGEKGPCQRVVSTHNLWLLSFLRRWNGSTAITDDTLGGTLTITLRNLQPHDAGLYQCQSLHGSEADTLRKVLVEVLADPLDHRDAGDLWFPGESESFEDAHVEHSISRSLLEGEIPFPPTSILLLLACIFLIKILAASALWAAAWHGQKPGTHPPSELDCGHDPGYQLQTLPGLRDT
Method: (§1) Human macrophages were differentiated from donor blood using a human monocyte enrichment cocktail (Stem Cell Technologies) and culturing monocytes with human mCSF for five days in macrophage media (RPMI+10% Hyclone FBS+Glutamax+Pen/Strep+non-essential amino acids+sodium pyruvate). On the fifth day, the human macrophages were scraped from the flasks and were re-plated at 100,000 cells/well on a 96-well poly-D-lysine-coated plate in the macrophage media (without mCSF). The cells were incubated for 24 hours to adhere, then the media was removed.
Antibodies pre-mixed with lipid vesicles comprised of 70% DOPC and 30% POPS (made according to the procedure for making vesicles described above) diluted in HBSS were immediately added to the cells, and allowed to incubate for 5 minutes at 37° C. The liposome/antibody solution was removed, and 35 μL lysis buffer (Cell Signaling Technologies, CST) was added using the liquid handler. The lysate was then incubated at 4° C. for 30 minutes, then either frozen at −80° C. or immediately carried forward to a pSyk AlphaLISA assay as described above. […] The results of the assay are shown in FIG. 9B and in Table 8 below.

soluble TREM2 (sTREM2) = molecular target: T4, soluble TREM2 (sTREM2) (Homo sapiens, UniProt Q9NZC2); test: Soluble TREM2 (TREM2 shedding) assay in HEK293 TREM2/DAP12 cells; format: cell-based; parameters: key to STREM2: NC = no change; −− = reduced sTREM2; ++ = increased sTREM2
T4 construct: expressed in transfected cells
T4 sequence (O43914 22-113 partner, one chain of several): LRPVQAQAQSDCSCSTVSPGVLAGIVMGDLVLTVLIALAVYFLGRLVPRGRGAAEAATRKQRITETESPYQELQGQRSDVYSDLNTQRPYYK
Method: HEK293 cells stably expressing human TREM2 and DAP12 were plated onto 96-well plates pre-coated with poly-D-lysine 4-16 hours prior to antibody treatment. Antibody supernatants or control antibodies were diluted into fresh complete media and added onto cells in triplicate. Cells were incubated with antibody containing media for 18 hours prior to removal of the cell supernatant for assay by TREM2 ELISA. Samples and standards were diluted 1:10 into blocking buffer (3% BSA/TBST) in the assay plate. Briefly, MSD small spot streptavidin plates were coated with biotinylated anti-hTREM2 polyclonal antibody (R&D Systems) overnight at 4° C. or 1 hour at room temperature. Plates were then blocked overnight at 4° C., or 1 hour at room temperature, with blocking buffer, 3% BSA/TBST. Plates were washed three times with TBST in a Biotek plate washer (used for all washes) prior to addition of diluent (blocking buffer) and denatured supernatants from cell culture. A TREM2-His protein diluted in 3% BSA/TBST was used as a standard for absolute quantification. Following 1 hour incubation at room temperature, plates were washed with TBST. […] After washing with TBST, MSD plates were developed using 2×MSD read buffer T, followed by detection using an MSD Sector plate reader. MSD values were converted to absolute quantities of sTREM2 by fitting a standard curve using Prism 7.0 software (Graphpad). […]

TREM2 [5] = molecular target: T3, TREM2; test: TREM2 pSyk antagonist assay on human macrophages (antibody pre-incubation, then liposomes); format: cell-based; details: FIGS. 9C-9D, 30 nM antibody
Method: as §1
Antibodies diluted in RPMI alone were immediately added to the cells, and allowed to incubate for 30 minutes at 37° C. The antibodies were then removed. Lipid vesicles comprised of 70% DOPC and 30% POPS (made according to the procedure for making vesicles described above) in HBSS were added to the cells and incubated […] at 37° C. The liposome/antibody solution was removed, and 35 μL lysis buffer (Cell Signaling Technologies, CST) was added using the liquid handler. The lysate was then incubated at 4° C. for 30 minutes, then either frozen at −80° C. or immediately carried forward to a pSyk AlphaLISA assay as described above.

B1: 21D4.D1: anti-TREM2 antibody clone; VH SEQ ID NO:15, VL SEQ ID NO:26 (antibody, V domains shown)
VH: QVQLQQSGADLLRPGVSVKISCKGSGYTFTDHAMHWVKQSHAESLEWIGVISTYSGDTGYNQKFKGKATMTVDKSSSTAYLELARLTSEDSAIYYCAREGHYDDAMDYWGQGTSVTVSS
VL: DVVMTQTPLTLSVTIGQPASFSCKSSQSLLDSDGKTYLNWLLRRPGQSPKRLIYVVSKLDSGVPDRFTGSGSGTDFTLKISRVEAEDLGVYYCWQGTHFPYTFGGGTKLEIK
- Bin by Octet (hTREM2): 1-2
- inhibition of liposome mediated pSyk (TREM2 [1]): antagonistic activity; also recorded: significantly reduced TREM2 activation by liposomes
- interaction with lipid ligand to activate p-Syk (in words) (TREM2 [2]; FIG. 9A, 30 nM antibody, PS/PC liposomes, HEK cells): block lipid ligand activation of TREM2
- p-Syk induction by antibody alone (in words) (TREM2 [2]): alone induce pSyk signaling
- p-Syk induction by antibody alone (in words) (TREM2 [2]; listed as 21D4): do not induce p-Syk
- Bin by FACS (TREM2 [3]): 1
- effect on lipid ligand activation of TREM2 (in words) (TREM2 [4]; FIG. 9B, human macrophages): inhibitor effect
- Slope + Liposome (TREM2 [4]; pSyk, 10 nM antibody with 0, EC20, EC50, EC80 PS/PC liposomes, liposome-alone signal subtracted): −1.632
- TREM2 shedding (in words) (soluble TREM2 (sTREM2); FIG. 4, 18 hours): enhances TREM2 shedding
- STREM2 (soluble TREM2 (sTREM2); change in sTREM2 levels): ++

B2: 51D4: anti-TREM2 antibody clone; VH SEQ ID NO:314, VL SEQ ID NO:318 (antibody, V domains shown)
VH: QVHLQQSGPEVVRPGVSVKISCKGSGYTFTDYGMHWVKQSHAKSLEWIGVISTYNGNTSYNQKYKGKATVTVDKPSSTAYMELVRLTSEDSAIYYCARDFGYVPFDYWGQGTTLTVSS
VL: B1 VL with F21I, R43Q, V55L, K58Y, E86D
- Bin by Octet (hTREM2): 1-2
- liposome mediated pSyk signaling after antibody pre-incubation (TREM2 [5]): blocked
- Bin by FACS (TREM2 [3]): 1-2
